B1: PhoQ; a variant is named by its letters at X, in order, P23837 (parent)
chain: MKKLLRLFFPLSLRVRFLLATAAVVLVLSLAYGMVALIGYSVSFDKTTFRLLRGESNLFYTLAKWENNKLHVELPENIDKQSPTMTLIYDENGQLLWAQRDVPWLMKMIQPDWLKSNGFHEIEADVNDTSLLLSGDHSIQQQLQEVREDDDDAEMTHSVAVNVYPATSRMPKLTIVVVDTIPVELKSSYMVWSWFIYVLSANLLLVIPLLWVAAWWSLRPIEALAKEVRELEEHNRELLNPATTRELTSLVRNLNRLLKSERERYDKYRTTLTDLTHSLKTPLXXLQXXLRSLRSEKMSVSDAEPVMLEQISRISQQIGYYLHRASMRGGTLLSRELHPVAPLLDNLTSALNKVYQRKGVNISLDISPEISFVGEQNDFVEVMGNVLDNACKYCLEFVEISARQTDEHLYIVVEDDGPGIPLSKREVIFDRGQRVDTLRPGQGVGLAVAREITEQYEGKIVAGESMLGGARMEVIFGRQHSAPKDE

The list shows a part of the results.

The variants in the test derive from B1. As to the kind of experiment: enrichment ratio after two sorts for PhoP signalling (ratio (wild type AVST 3.29)); higher = more functional. Conditions: with PhoP (E. coli).
Regarding MHID, the enrichment ratio was not above 0.25.
Regarding IDSF, the enrichment ratio is not above 0.25.
With APNK the figure was not above 0.25; with SGEC, not above 0.25; with GFMI, not above 0.25.
ERDN: the enrichment ratio is not above 0.25.
Consider FGCS, for which the enrichment ratio was not above 0.25.
NTMS: the enrichment ratio is not above 0.25.
As to KNCG, the enrichment ratio is not above 0.25.
With HWPT, the enrichment ratio was not above 0.25.
Regarding TCAV, the enrichment ratio amounted to 13.4.
Take DTMK: the enrichment ratio was not above 0.25.
On to DHNY, for which the enrichment ratio was not above 0.25.
With HSAI, the enrichment ratio is not above 0.25.
Consider FQRQ, for which the enrichment ratio is not above 0.25.
For TCTA, the enrichment ratio was found to be 11.4.
Consider EQRI, for which the enrichment ratio was not above 0.25.
Next, SQYF: 0.646; HLVK: not above 0.25; TVLT: 0.749.
In the case of ELFE, the enrichment ratio is not above 0.25.
Turning to GYKQ, the enrichment ratio is not above 0.25.
Regarding MGDA, the enrichment ratio was not above 0.25.
Regarding RYYQ, the enrichment ratio was not above 0.25.
As for FPMP, the enrichment ratio was not above 0.25.
Regarding VNGN, the enrichment ratio was not above 0.25.
In the case of ETLL, the enrichment ratio stood at 2.25.
As to PRLA, the enrichment ratio was not above 0.25.
Next, MHIK: not above 0.25; SKFY: not above 0.25.
As for SMMK, the enrichment ratio worked out at 5.2.
In the case of WFYI, the enrichment ratio was not above 0.25.
As for AQRL, the enrichment ratio was not above 0.25.
Regarding LIPT, the enrichment ratio is not above 0.25.
WEFP: the enrichment ratio was not above 0.25.
Consider KPNF, for which the enrichment ratio was not above 0.25.
Next, IWNG: not above 0.25; YAEL: not above 0.25.
Consider PTKK, for which the enrichment ratio is not above 0.25.
Turning to WIKI, the enrichment ratio was not above 0.25.
Consider VDFP, for which the enrichment ratio is not above 0.25.
As to SDMI, the enrichment ratio came out at 3.86.
With SWVQ the figure was not above 0.25; with IPET, not above 0.25; with STCY, 8.93.
With MLLQ, the enrichment ratio is not above 0.25.
Regarding LFWE, the enrichment ratio is not above 0.25.
PPFC: the enrichment ratio was not above 0.25.
For LIKL, the enrichment ratio is not above 0.25.
For PGFH, the enrichment ratio is not above 0.25.
For APTG, the enrichment ratio was not above 0.25.
With YNGY, the enrichment ratio is not above 0.25.
Take SISH: the enrichment ratio worked out at 10.5.
With PTRF the figure was not above 0.25.
Next, MKYC: not above 0.25; EVAN: not above 0.25.
Regarding VKSM, the enrichment ratio was not above 0.25.
Turning to FIGR, the enrichment ratio is not above 0.25.
As for HYTA, the enrichment ratio was not above 0.25.
As to PHHY, the enrichment ratio is not above 0.25.
Next, LLLE: not above 0.25; WQWW: not above 0.25.
As for PLQG, the enrichment ratio was not above 0.25.
Consider KLCD, for which the enrichment ratio is not above 0.25.
Take LDTF: the enrichment ratio is not above 0.25.
HYST: the enrichment ratio was not above 0.25.
Consider SSRW, for which the enrichment ratio is not above 0.25.
Take NTAF: the enrichment ratio is not above 0.25.
On to FDGK, for which the enrichment ratio was not above 0.25.
For the variant NEFK, the enrichment ratio was not above 0.25.
With TKCG, the enrichment ratio stood at 6.42.
With LLLI the figure was not above 0.25; with LQKT, not above 0.25.
As for TMTC, the enrichment ratio was determined as 13.5.
Next, MSHP: not above 0.25.
HYIH: the enrichment ratio is not above 0.25.
For the variant FRKI, the enrichment ratio is not above 0.25.
Regarding RIFA, the enrichment ratio is not above 0.25.
Take NYAY: the enrichment ratio was not above 0.25.
For LDRS, the enrichment ratio is not above 0.25.
Regarding RMPH, the enrichment ratio was not above 0.25.
With HVDP, the enrichment ratio is not above 0.25.
With LTPD the figure was not above 0.25.
Regarding PFFC, the enrichment ratio was not above 0.25.
On to LDRG, for which the enrichment ratio was not above 0.25.
In the case of LQAC, the enrichment ratio is not above 0.25.
With HWVK the figure was not above 0.25; with DKPM, not above 0.25; with VGVE, not above 0.25.
In the case of CSVY, the enrichment ratio is not above 0.25.
Regarding QMIF, the enrichment ratio is not above 0.25.
On to PWHM, for which the enrichment ratio is not above 0.25.
Consider MDYV, for which the enrichment ratio is not above 0.25.
TCDK: the enrichment ratio is not above 0.25.
Take HKRA: the enrichment ratio is not above 0.25.
As for YLVR, the enrichment ratio is not above 0.25.
For the variant PPNG, the enrichment ratio was not above 0.25.
Next, PEPM: not above 0.25.
Consider DCRH, for which the enrichment ratio is not above 0.25.
With LALF, the enrichment ratio was not above 0.25.
As to DHNT, the enrichment ratio was not above 0.25.
As to FTTF, the enrichment ratio was not above 0.25.
On to QCHK, for which the enrichment ratio was not above 0.25.
For RFRV, the enrichment ratio was not above 0.25.
On to SFAY, for which the enrichment ratio was not above 0.25.
Take AASR: the enrichment ratio was not above 0.25.
Consider YTTD, for which the enrichment ratio is not above 0.25.
As to RWHR, the enrichment ratio is not above 0.25.
Next, QWNT: not above 0.25; HYWR: not above 0.25; KLLA: not above 0.25.
Consider SPMM, for which the enrichment ratio was not above 0.25.
For the variant VIQQ, the enrichment ratio was not above 0.25.
For the variant NAVL, the enrichment ratio is not above 0.25.
In the case of IFAV, the enrichment ratio is not above 0.25.
As to LHKF, the enrichment ratio is not above 0.25.
Consider LNGG, for which the enrichment ratio was not above 0.25.
Take LFVI: the enrichment ratio was not above 0.25.
As to RESV, the enrichment ratio was not above 0.25.
For the variant LNVD, the enrichment ratio was not above 0.25.
Turning to SPCA, the enrichment ratio was not above 0.25.
With FKMC, the enrichment ratio is not above 0.25.
Take ELAW: the enrichment ratio was not above 0.25.
In the case of SFQA, the enrichment ratio was not above 0.25.
For the variant WLRK, the enrichment ratio is not above 0.25.
With QCMR, the enrichment ratio was not above 0.25.
DRAH: the enrichment ratio was not above 0.25.
For KYSA, the enrichment ratio was not above 0.25.
Consider TLQE, for which the enrichment ratio came to 11.7.
For the variant HPCA, the enrichment ratio was not above 0.25.
Turning to FAYC, the enrichment ratio is not above 0.25.
On to FGSL, for which the enrichment ratio was not above 0.25.
As for ASFD, the enrichment ratio was not above 0.25.
With KYRV, the enrichment ratio is not above 0.25.
Consider KSAE, for which the enrichment ratio was not above 0.25.
On to WAPA, for which the enrichment ratio is not above 0.25.
Turning to VRDI, the enrichment ratio is not above 0.25.
Next, EMQG: not above 0.25.
As for MTDR, the enrichment ratio was not above 0.25.
Turning to NHID, the enrichment ratio was not above 0.25.
Consider GHGC, for which the enrichment ratio is not above 0.25.
On to RDHG, for which the enrichment ratio is not above 0.25.
For the variant SYLG, the enrichment ratio amounted to 9.61.
As to VKEG, the enrichment ratio is not above 0.25.
In the case of LIIM, the enrichment ratio is not above 0.25.
Next, IGAR: not above 0.25.
With YHCG the figure was not above 0.25.
As to QKYH, the enrichment ratio was 3.42.
In the case of FERI, the enrichment ratio was not above 0.25.
IYIK: the enrichment ratio was not above 0.25.
Regarding FNWL, the enrichment ratio is not above 0.25.
In the case of SRCI, the enrichment ratio is 3.77.
Turning to KSPY, the enrichment ratio is not above 0.25.
As for GFPP, the enrichment ratio is not above 0.25.
On to ADAK, for which the enrichment ratio is not above 0.25.
As for DDDF, the enrichment ratio was not above 0.25.
Consider CTTR, for which the enrichment ratio is not above 0.25.
With QVMF, the enrichment ratio is not above 0.25.
Next, MTPS: not above 0.25.
For QDTL, the enrichment ratio was not above 0.25.
With HHLM, the enrichment ratio was not above 0.25.
Consider MIGI, for which the enrichment ratio stood at 4.29.
As to GYDV, the enrichment ratio was not above 0.25.
With FMFM the figure was not above 0.25; with QAKE, not above 0.25; with YMMH, not above 0.25.
As to ADRH, the enrichment ratio was not above 0.25.
With WHVR, the enrichment ratio was not above 0.25.
For SAGQ, the enrichment ratio amounted to 9.95.
For PGAY, the enrichment ratio is not above 0.25.
Next, IWIF: not above 0.25.
With DGQH the figure was not above 0.25; with ILLN, not above 0.25.
Next, QCTY: not above 0.25; ERLA: not above 0.25; MQNL: not above 0.25.
On to MKIF, for which the enrichment ratio was not above 0.25.
MDKC: the enrichment ratio was not above 0.25.
As to DYYP, the enrichment ratio is not above 0.25.
Take EGNR: the enrichment ratio is not above 0.25.
For the variant HMHF, the enrichment ratio is not above 0.25.
With EFWS the figure was not above 0.25.
As for YFIG, the enrichment ratio was not above 0.25.
As to HGMA, the enrichment ratio was not above 0.25.
Take MWML: the enrichment ratio was not above 0.25.
Regarding RYHL, the enrichment ratio was not above 0.25.
As to QTNN, the enrichment ratio was 6.71.
As to IRKR, the enrichment ratio was not above 0.25.
With IQGQ the figure was not above 0.25; with TADF, 1.55.
In the case of MHKI, the enrichment ratio was not above 0.25.
As to YDRY, the enrichment ratio is not above 0.25.
On to MRST, for which the enrichment ratio was not above 0.25.
In the case of HSLI, the enrichment ratio came out at 10.3.
Next, LMRV: not above 0.25.

(Values after a collection of fitness landscapes (doi:10.1126/science.1257360).)
